# Data published in publication PMC4336329 (PLoS ONE, 2015).
# Screen size: about 310,000 compounds; about 2,200 (0.71%) showed an effect of 50% or more. Effects have a minus sign here. This is one part of the list.
# Molecular target: human ether-à-go-go-related gene (hERG) potassium channel (human, UniProt Q12809)
# Test: primary screen, population patch clamp on CHO cells stably expressing hERG
# Chain of human ether-à-go-go-related gene (hERG) potassium channel (Q12809 whole entry, looked up): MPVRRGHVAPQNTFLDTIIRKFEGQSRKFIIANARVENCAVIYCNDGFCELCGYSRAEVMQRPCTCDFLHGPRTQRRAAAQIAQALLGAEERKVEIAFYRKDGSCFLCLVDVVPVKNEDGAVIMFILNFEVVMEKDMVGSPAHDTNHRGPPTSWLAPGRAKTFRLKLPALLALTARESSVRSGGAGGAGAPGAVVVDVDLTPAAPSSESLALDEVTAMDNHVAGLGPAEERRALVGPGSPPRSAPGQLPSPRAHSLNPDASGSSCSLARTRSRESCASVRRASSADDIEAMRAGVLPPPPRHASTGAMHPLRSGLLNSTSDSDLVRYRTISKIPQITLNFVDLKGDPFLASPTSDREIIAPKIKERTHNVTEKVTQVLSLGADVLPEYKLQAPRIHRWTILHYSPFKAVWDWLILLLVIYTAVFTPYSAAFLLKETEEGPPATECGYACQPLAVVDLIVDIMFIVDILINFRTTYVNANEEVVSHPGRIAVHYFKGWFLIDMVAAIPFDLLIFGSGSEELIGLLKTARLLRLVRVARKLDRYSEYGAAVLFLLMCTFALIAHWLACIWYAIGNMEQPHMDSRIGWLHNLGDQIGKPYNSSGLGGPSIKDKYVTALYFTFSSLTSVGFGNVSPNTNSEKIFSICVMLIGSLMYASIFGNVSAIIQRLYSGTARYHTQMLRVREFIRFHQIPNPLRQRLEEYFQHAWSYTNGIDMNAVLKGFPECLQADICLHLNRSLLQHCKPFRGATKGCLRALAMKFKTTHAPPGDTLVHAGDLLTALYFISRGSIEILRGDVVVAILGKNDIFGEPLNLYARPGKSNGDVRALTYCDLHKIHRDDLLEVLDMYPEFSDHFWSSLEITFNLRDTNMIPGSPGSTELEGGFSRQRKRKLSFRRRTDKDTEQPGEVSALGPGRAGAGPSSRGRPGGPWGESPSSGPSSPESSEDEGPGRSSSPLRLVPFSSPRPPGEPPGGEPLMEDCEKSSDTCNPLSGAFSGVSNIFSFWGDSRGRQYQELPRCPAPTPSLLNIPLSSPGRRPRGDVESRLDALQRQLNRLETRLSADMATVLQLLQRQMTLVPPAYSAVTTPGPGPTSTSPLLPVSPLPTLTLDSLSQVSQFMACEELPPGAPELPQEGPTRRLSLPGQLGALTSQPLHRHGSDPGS
row,Structure (SMILES),"hERG current change (%, negative = inhibition) at 1uM [%]"
1,COc1cccc(-n2nc(-c3ccnn3-c3ccccc3)c(=O)n(C)c2=O)c1,-8.21
2,Cc1cc(C)c2c3c(oc2n1)C(=O)N(c1cccc(Cl)c1)CC(=O)N3,6.73
3,CCc1cc(=O)oc2c(C)c(O)c(CN(C)C)cc12,6.29
4,CCOC(=O)c1cnc2c(C)cc(Cl)cc2c1N1CCN(C)CC1.Cl,5.36
5,CS(=O)(=O)c1nc(S(=O)(=O)c2ccc(Cl)cc2)c(N2CCC(O)CC2)s1,12.4
6,O=C(C1CC(=O)N(c2ccc(Cl)cc2)C1)N1CCC(c2nc3ccccc3[nH]2)CC1 (centres unmarked),-22.3
7,CCN(CC)S(=O)(=O)c1ccc(Cl)c(C(=O)NCc2ccccc2Cl)c1,-3.23
8,CC(=O)Nc1cccc(NC(=O)C(=O)NCC(c2ccco2)N2CCc3ccccc3C2)c1 (centres unmarked),-1.3
9,CC(C(=O)NCc1ccc2c(c1)OCO2)N1c2cccc3cccc(c23)S1(=O)=O (centres unmarked),0.839
10,CC1(C)Oc2ccc3ccc(=O)oc3c2CC1O (centres unmarked),16.4
11,c1ccc2c(c1)[nH]c1c(N3CCSCC3)ncnc12,8.19
12,COCCCNC(=O)Cn1c(=O)n(CC(=O)NCCc2ccc(OC)c(OC)c2)c(=O)c2sccc21,7.16
13,COc1ccc(-n2cc(C(=O)c3cc4ccccc4oc3=O)c(C(C)=O)n2)cc1,10.3
14,Cc1ccc(N2CCN(CCCN3C(=O)C4CCCN4C3=O)CC2)cc1.Cl (centres unmarked),4.77
15,COc1cc2[nH]c(=S)n(Cc3cccs3)c(=O)c2cc1OC,4.19
16,OCC1(Cc2ccccc2)CCN(Cc2cc3ccccc3o2)CC1,-0.287
17,S=C(NC1CCCCC1)N1CCOCCOCCN(C(=S)NC2CCCCC2)CCOCCOCC1,6.91
18,O=C(CN1CCN(Cc2ccccc2)CC1)N1CCN(c2ccccc2)CC1,3.29
19,O=C(c1ccc(Br)cc1)N1CCCC1,8.43

row,Structure (SMILES),"hERG current change (%, negative = inhibition) at 1uM [%]"
1,CCC1(c2ccccc2)NC(=O)N(CC(=O)N(CC(=O)Nc2ccccc2C(F)(F)F)Cc2ccco2)C1=O (centres unmarked),19
2,CCCNC(=O)CNC(=S)N(Cc1cc(OC)c(OC)c(OC)c1)C1CCCC1,-1.48
3,COC(=O)C1=C(CS(=O)(=O)c2ccccc2)NC(=O)NC1c1ccc(OC)c(OC)c1 (centres unmarked),18.9
4,O=C(N/N=C/c1ccc(-c2ccccc2[N+](=O)[O-])o1)c1cncc(Br)c1,3.41
5,CC1CCCCC1NS(=O)(=O)c1ccc(S(=O)(=O)N2CCCC2)cc1 (centres unmarked),6.36
6,COc1ccc(C(=O)c2c(-c3cccc(C)c3)oc3ccc(N4CCOCC4)cc23)cn1,17.6
7,Cc1ccc(C)c(OCc2cc(C(=O)N3CC[C@@H]4CCCC[C@H]4C3)no2)c1,8.15
8,O=C(/C=C/c1cccs1)NCc1cccnc1,11.2
9,COCCn1c(SCc2cccnc2)nnc1-c1c[nH]c2ccccc12,-7.38
10,COc1ccccc1OCCCCCCN1CCOCC1.O=C(O)C(=O)O,2.8
11,O=C(NCCC1=CCCCC1)c1ccc2c(c1)N(Cc1ccccc1)C(=O)CS2,-2.87
12,COc1cccc(CN2CC(C(=O)N(C)Cc3ccnc4ccccc34)CCC2=O)c1 (centres unmarked),7.39
13,Cl.NCCNC(=O)c1c(O)c2cccc3c2n(c1=O)CCC3,8.67
14,COC(=O)n1c(SC)nc2ccccc21,15.1
15,COc1ccc(-c2cc(C(=O)NC3CCCC3)no2)cc1OC,0.758
16,O=C(CNC(=O)C1CCCCC1)Nc1cc(Cl)cc(Cl)c1,14.3
17,COc1ccc(Nc2nc(C(=O)N3CCc4ccccc4C3)cs2)cc1,14.3
18,O=C(NN1C(=O)C2C3C=CC(O3)C2C1=O)c1cccc(Br)c1 (centres unmarked),22.1
19,Cc1cc(C(=O)N2CCCC(N3CCN(c4cccc(Cl)c4)CC3)C2)nc(C)n1 (centres unmarked),1.77

row,Structure (SMILES),"hERG current change (%, negative = inhibition) at 1uM [%]"
1,Cc1cc(C)n(-c2ccc([N+](=O)[O-])cc2-c2nn[nH]n2)n1,14.1
2,CC(C)CNC1CCS(=O)(=O)C1.Cl (centres unmarked),9.24
3,COc1ccc([N+](=O)[O-])cc1NC(=O)COC(=O)c1ccc(O)cc1,8.66
4,Cc1c(N2C(=O)/C(=C\C3CC=CCC3)SC2=S)c(=O)n(-c2ccccc2)n1C (centres unmarked),14.5
5,CCN(CC)C(=O)CSC1=Nc2ccccc2C2=NC(c3ccccc3)C(=O)N12 (centres unmarked),-18.3
6,CCC1CCc2c(c3ccccc3[nH]c2=O)O1 (centres unmarked),5.26
7,COc1ccc(C(=O)NC(=S)NCc2ccco2)cc1OC,-2.68
8,CN(C)CCOC(c1ccc(Cl)cc1)c1ccccn1.O=C(O)/C=C/C(=O)O (centres unmarked),-3.6
9,C=CCn1c(SCC(=O)Nc2cc(C)ccc2OC)nnc1-c1ccco1,-23
10,C/C(=N\Nc1cccc([N+](=O)[O-])c1)c1cc2ccccc2o1,6.28
11,Cc1nc2ccccc2n1CC(=O)NCCN1CCOCC1,2.85
12,O=C(Cn1nnc(-c2cccs2)n1)Nc1ccccc1C(F)(F)F,5.93
13,COc1ccc2oc(C(=O)Nc3nccs3)c(C)c2c1,14.7
14,CCN(CC)S(=O)(=O)c1ccc(C)c(NC(=O)CNCCN(C(C)C)C(C)C)c1.O=C(O)C(=O)O,-66.5
15,COc1ccc(CN2CCn3ncc(C(=O)Nc4cc(C)cc(C)c4)c3C2=O)cc1,10.7
16,CCOC(=O)Cc1csc(NS(=O)(=O)c2ccc(SC)cc2)n1,15.1
17,CC1(C)Cc2c(C#N)c(OCC(=O)c3ccc(Cl)cc3)nc(-c3ccoc3)c2CO1,12.5
18,Nc1nn(-c2ccccc2Cl)cc1-c1nn[nH]n1,17.9
